{
  "source": "PubChem BioAssay AID2675",
  "about": "(National Center for Advancing Translational Sciences (NCATS), 2010)",
  "note": "Where “and” joins values, the source holds several entries; their conditions need not be identical. Identical values can stand only once. Among all 280,000 compounds or so, about 100 (0.036%) were called active. Inconclusive results, whose numbers are uncertain, are shown with a selection of clear calls. Calls come from the whole dose curve; as a rule, active = well fitted inhibition curve with a large enough effect in the signal ratio, with a control signal flat (not every such curve was filed as active); inconclusive = small, poorly fitted or top-dose-only effect, or effect the other way, or a change in a side signal; inactive = no such curve, though single readings can be large or run the other way; the % refers to the signal ratio. Potencies of inconclusive entries are doubtful fits and often do not repeat. A note “side channel” means that the fit belongs to a control or component signal, not to the main read-out. % is set by controls: 0 for no effect and ±100 for the full control effect; potency is the fitted concentration of half-maximal effect; tags give direction and shape of the fitted curve or compound fluorescence and quenching.",
  "data": [
    {"biological_target": "Muscleblind-like protein 1 (Homo sapiens) (UniProt Q9NR56)", "sequence (Q9NR56 whole entry, looked up)": "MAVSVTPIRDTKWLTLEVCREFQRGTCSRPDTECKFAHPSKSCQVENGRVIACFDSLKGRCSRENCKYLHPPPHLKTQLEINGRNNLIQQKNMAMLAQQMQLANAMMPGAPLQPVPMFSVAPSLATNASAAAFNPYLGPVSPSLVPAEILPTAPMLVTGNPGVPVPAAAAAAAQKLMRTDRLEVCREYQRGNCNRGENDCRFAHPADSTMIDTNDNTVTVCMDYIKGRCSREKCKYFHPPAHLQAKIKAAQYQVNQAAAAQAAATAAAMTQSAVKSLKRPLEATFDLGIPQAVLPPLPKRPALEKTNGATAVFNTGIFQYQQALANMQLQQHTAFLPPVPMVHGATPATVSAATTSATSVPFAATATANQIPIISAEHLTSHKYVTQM", "assay": "qHTS Assay for Inhibitors of MBNL1-poly(CUG) RNA binding", "conditions": "TR-FRET MBNL1-His/biotin-(CUG)12 binding, 665/545 ratio; activity change, negative = inhibition: at 57.5 µM (top of the series)", "procedure,_shortened": "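His-tagged MBNL1 binding to biotinylated (CUG)12 RNA was measured by TR-FRET using terbium anti-His antibody (0.055 ng/ul final) and streptavidin-XL665 (5 nM final). Compounds were titrated 92 nM to 58 uM; 60 min at room temperature.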", "values": [
      {"molecule": "CCOc1cc2[nH]c(=S)n(CCCC(=O)N3CCC4(CC3)OCCO4)c(=O)c2cc1OCC", "activity change, negative = inhibition": "inactive: -4.75%"},
      {"molecule": "O=C(OCC(=O)c1ccc([N+](=O)[O-])cc1)/C(=C\\c1ccc(Cl)cc1)NC(=O)c1ccccc1", "Potency": "inconclusive: 14.1 µM [quencher, side channel, partial curve]"},
      {"molecule": "COc1ccccc1CCNC1CCC(C(C)(C)C)CC1", "note": "(stereo unspecified)", "activity change, negative = inhibition": "inactive: 3.47%"},
      {"molecule": "Cc1cc(OCC(=O)N2CCC[C@@H]2C(=O)O)c2c(C)c(C)c(=O)oc2c1", "Potency": "inconclusive: 35.5 µM [quencher, side channel, single point]"},
      {"molecule": "O=[N+]([O-])c1ccc(N2CCOCC2)c2ccncc12", "Potency": "inconclusive: 14.1 µM [quencher, partial curve]"},
      {"molecule": "COc1cc(C(=O)N/N=C/c2ccc(OC(=O)N3CCOCC3)cc2)cc(OC)c1OC", "Potency": "inconclusive: 39.8 µM [quencher, side channel, single point]"},
      {"molecule": "CCOP(=S)(NN(Cc1ccccc1)C(=O)c1ccccc1)OCC", "Potency": "inconclusive: 501 µM [inhibitor, partial curve, poor fit]"},
      {"molecule": "NNS(=O)(=O)c1ccc(Sc2ccccn2)c([N+](=O)[O-])c1", "Potency": "inconclusive: 14.1 µM [quencher, side channel, partial curve]"},
      {"molecule": "C=C1C2C[C@H](O)C(C)(C)[C@@]2(O)[C@H](O)C[C@]23C[C@@](C)(O)[C@H](CC[C@H]12)[C@H]3OC(C)=O", "note": "(stereo partly specified)", "Potency": "inconclusive: 5.62 µM [fluorescent, side channel, partial curve, poor fit]"},
      {"molecule": "CCN1/C(=C\\C=C\\C2=[N+](CC)c3ccccc3C2(C)C)C(C)(C)c2ccccc21", "Potency": "inconclusive: 3.98 µM [quencher, side channel, full curve]"},
      {"molecule": "O=c1[nH]c(=O)n(CCC2=CCCCC2)c(O)c1/C=N/Nc1cccc2ccccc12", "activity change, negative = inhibition": "inactive: 12.5%"},
      {"molecule": "Clc1cccc(N2CCNCC2)c1Cl", "Potency": "inconclusive: 0.794 µM [quencher, side channel, single point]"},
      {"molecule": "COc1ccc(Cc2nccc3cc(OC)c(OC)cc23)cc1OC", "Potency": "inconclusive: 100 µM [inhibitor, single point]"},
      {"molecule": "CN1/C(=C\\C=C2C(=O)NC(=S)NC2=O)C(C)(C)c2ccccc21", "Potency": "inconclusive: 2.82 µM [quencher, side channel, full curve]"},
      {"molecule": "Fc1ccc(Cn2nnnc2CN2CCC(n3nnc4cc(C(F)(F)F)ccc43)CC2)cc1", "activity change, negative = inhibition": "inactive: -11.8%"},
      {"molecule": "O=[N+]([O-])c1ccc2c(c1)C(c1ccccc1)=NCCN2", "Potency": "inconclusive: 14.1 µM [quencher, partial curve]"},
      {"molecule": "O=C1NC(=O)C(=Cc2coc3ccccc3c2=O)C(=O)N1", "activity change, negative = inhibition": "inactive: 4.29%"},
      {"molecule": "CCc1ccc(N2C(=O)NC(=O)/C(=C/c3cccn3CCOc3ccc(C)cc3)C2=O)cc1", "activity change, negative = inhibition": "inactive: 3.38%"},
      {"molecule": "CCN1CCN(c2nc([N+](=O)[O-])nn2C)CC1", "Potency": "inconclusive: 22.4 µM [quencher, side channel, partial curve]"},
      {"molecule": "COc1ccccc1N1CCN(Cc2ccccc2F)CC1", "Potency": "inconclusive: 100 µM [inhibitor, single point]"},
      {"molecule": "O=[As](O)(O)c1ccc(N=Nc2ccc(O)cc2)cc1", "Potency": "inconclusive: 12.6 µM [quencher, side channel, partial curve]"},
      {"molecule": "Cc1ccc(-n2c(-c3ccc([N+](=O)[O-])cc3)nc3ccccc3c2=O)cc1", "Potency": "inconclusive: 17.8 µM [quencher, side channel, partial curve]"},
      {"molecule": "CN1CCN(c2nc(N)c(Br)c(Cl)n2)CC1", "activity change, negative = inhibition": "inactive: 0.171%"},
      {"molecule": "CCc1ccc(N2C(=O)NC(=O)/C(=C\\c3cc(C)n(-c4cc(C(=O)O)cc(C(=O)O)c4)c3C)C2=O)cc1", "activity change, negative = inhibition": "inactive: 16.2%"},
      {"molecule": "S=C(c1ccc(Cl)cc1)N1CCOCC1", "activity change, negative = inhibition": "inactive: 6.56%"},
      {"molecule": "COC(=O)C[C@]1(C(=O)OC)CN(C#N)N(c2ccc(Cl)cc2)C12c1ccccc1-c1ccccc12", "activity change, negative = inhibition": "inactive: 8.41%"},
      {"molecule": "Clc1ccc(OCC#CCN2CCCCCC2)cc1", "activity change, negative = inhibition": "inactive: 0.285%"},
      {"molecule": "CSc1ccc(C(=O)C2CCCN(Cc3cccnc3)C2)cc1", "note": "(stereo unspecified)", "activity change, negative = inhibition": "inactive: -9.06%"},
      {"molecule": "COc1ccc(CN2CCCC(C(=O)c3cccc(Cl)c3)C2)cc1", "note": "(stereo unspecified)", "activity change, negative = inhibition": "inactive: -8.44%"},
      {"molecule": "CN1CCN(Cc2cc3c(cc2[N+](=O)[O-])OCO3)CC1", "Potency": "inconclusive: 17.8 µM [quencher, side channel, single point]"},
      {"molecule": "CCOC(=O)c1c(NS(=O)(=O)c2ccccc2)n(CCCOC)c2nc3ccccc3nc12", "Potency": "inconclusive: 39.8 µM [inhibitor, partial curve]"},
      {"molecule": "C=CCn1c(O)c(Cc2ccc(OCC)cc2)c(=O)[nH]c1=O", "activity change, negative = inhibition": "inactive: -6.33%"},
      {"molecule": "CN(C)[C@@H]1C(=O)C(C(N)=O)=C(O)[C@@]2(O)C(=O)C3=C(O)c4c(O)ccc(Cl)c4[C@@](C)(O)[C@H]3C[C@@H]12", "Potency": "inconclusive: 17.8 µM [quencher, side channel, single point]"},
      {"molecule": "CC[C@@]1(O)C(=O)OCc2c1cc1n(c2=O)Cc2cc3ccccc3nc2-1", "Potency": "inconclusive: 3.16 µM [quencher, side channel, full curve] and inconclusive: 2.51 µM [quencher, side channel, full curve]"},
      {"molecule": "O=C1c2ccccc2C(=O)c2c1ccc1c(=O)n(-c3ccccc3)[nH]c21", "Potency": "inconclusive: 3.16 µM [quencher, side channel, full curve]"},
      {"molecule": "O=[N+]([O-])c1ccc(N2CCCCC2)c2ncccc12", "Potency": "inconclusive: 12.6 µM [quencher, side channel, partial curve]"},
      {"molecule": "Cn1cccc1/C=C1\\C(=O)NC(=O)N(Cc2ccccc2Cl)C1=O", "activity change, negative = inhibition": "inactive: -5.01%"},
      {"molecule": "CCN(CC)Cc1c[nH]c2ccccc12", "activity change, negative = inhibition": "inactive: 8.51%"},
      {"molecule": "Cc1cc([N+](=O)[O-])c2ccccc2[n+]1[O-]", "Potency": "inconclusive: 8.91 µM [quencher, side channel, partial curve]"},
      {"molecule": "CN1CCN(c2ccc([N+](=O)[O-])cc2Cl)CC1", "Potency": "inconclusive: 15.8 µM [quencher, side channel, partial curve]"},
      {"molecule": "CO[C@H]1[C@@H](OC)CC(OC2OC(CO)C(O)C(O)C2O)/C(=C\\C#N)[C@@H]1O", "note": "(stereo partly specified)", "Potency": "inconclusive: 6.31 µM [fluorescent, side channel, partial curve, poor fit]"}
    ]}
  ]
}
